The other results are listed elsewhere or left out.
Legend:
Test in all cases: glycan array binding signal (z-score within array); higher = stronger binding
Conditions in all cases: glycan notation: IUPAC condensed, linker removed
Fuc(a1-2)Gal = molecular target: Fuc(a1-2)Gal
Summary of the method: (§1)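 Negative Z-scores can be read as non-binding. The Z-score is calculated within each array and then averaged across arrays of one protein sequence at different concentrations or buffers and across linkers. Arrays, 3228 in all, were curated from the Consortium for Functional Glycomics database and kept only where the protein sequence was available.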

Fuc(a1-2)Gal(b1-3)GalNAc = molecular target: Fuc(a1-2)Gal(b1-3)GalNAc
Summary of the method: as §1

[1] = molecular target: Fuc(a1-2)Gal(b1-3)GalNAc(a1-3)[Fuc(a1-2)]Gal(b1-4)Glc
Summary of the method: as §1

[2] = molecular target: Fuc(a1-2)Gal(b1-3)GalNAc(a1-3)[Fuc(a1-2)]Gal(b1-4)GlcNAc
Summary of the method: as §1

[3] = molecular target: Fuc(a1-2)Gal(b1-3)GalNAc(b1-3)Gal
Summary of the method: as §1

[4] = molecular target: Fuc(a1-2)Gal(b1-3)GalNAc(b1-3)Gal(a1-4)Gal(b1-4)Glc
Summary of the method: as §1

[5] = molecular target: Fuc(a1-2)Gal(b1-3)GalNAc(b1-4)[Neu5Ac(a2-3)]Gal(b1-4)Glc
Summary of the method: as §1

Fuc(a1-2)Gal(b1-3)GlcNAc = molecular target: Fuc(a1-2)Gal(b1-3)GlcNAc
Summary of the method: as §1

[6] = molecular target: Fuc(a1-2)Gal(b1-3)GlcNAc(b1-2)Man(a1-3)[Fuc(a1-2)Gal(b1-3)GlcNAc(b1-2)Man(a1-6)]Man(b1-4)GlcNAc(b1-4)GlcNAc
Summary of the method: as §1

[7] = molecular target: Fuc(a1-2)Gal(b1-3)GlcNAc(b1-2)Man(a1-3)[Fuc(a1-2)Gal(b1-3)GlcNAc(b1-2)Man(a1-6)]Man(b1-4)GlcNAc(b1-4)[Fuc(a1-6)]GlcNAc
Summary of the method: as §1

[8] = molecular target: Fuc(a1-2)Gal(b1-3)GlcNAc(b1-3)Gal(b1-4)Glc
Summary of the method: as §1

[9] = molecular target: Fuc(a1-2)Gal(b1-3)GlcNAc(b1-3)GalNAc
Summary of the method: as §1

[10] = molecular target: Fuc(a1-2)Gal(b1-3)GlcNAc(b1-3)[Fuc(a1-3)[Gal(b1-4)]GlcNAc(b1-6)]Gal(b1-4)Glc
Summary of the method: as §1

[11] = molecular target: Fuc(a1-2)Gal(b1-3)GlcNAc(b1-3)[Gal(b1-4)GlcNAc(b1-6)]Gal(b1-4)Glc
Summary of the method: as §1

[12] = molecular target: Fuc(a1-2)Gal(b1-3)[Fuc(a1-4)]GlcNAc
Summary of the method: as §1

[13] = molecular target: Fuc(a1-2)Gal(b1-3)[Fuc(a1-4)]GlcNAc(b1-2)Man(a1-3)[Fuc(a1-2)Gal(b1-3)[Fuc(a1-4)]GlcNAc(b1-2)Man(a1-6)]Man(b1-4)GlcNAc(b1-4)GlcNAc
Summary of the method: as §1

[14] = molecular target: Fuc(a1-2)Gal(b1-3)[Fuc(a1-4)]GlcNAc(b1-3)[Fuc(a1-3)[Gal(b1-4)]GlcNAc(b1-6)]Gal(b1-4)Glc
Summary of the method: as §1

[15] = molecular target: Fuc(a1-2)Gal(b1-3)[Fuc(a1-4)]GlcNAc(b1-3)[Gal(b1-4)GlcNAc(b1-6)]Gal(b1-4)Glc
Summary of the method: as §1

Fuc(a1-2)Gal(b1-4)Glc = molecular target: Fuc(a1-2)Gal(b1-4)Glc
Summary of the method: as §1

Fuc(a1-2)Gal(b1-4)Glc6S = molecular target: Fuc(a1-2)Gal(b1-4)Glc6S
Summary of the method: as §1

Fuc(a1-2)Gal(b1-4)GlcNAc = molecular target: Fuc(a1-2)Gal(b1-4)GlcNAc
Summary of the method: as §1

[16] = molecular target: Fuc(a1-2)Gal(b1-4)GlcNAc(b1-2)Man(a1-3)[Fuc(a1-2)Gal(b1-4)GlcNAc(b1-2)Man(a1-6)]Man(b1-4)GlcNAc(b1-4)GlcNAc
Summary of the method: as §1

[17] = molecular target: Fuc(a1-2)Gal(b1-4)GlcNAc(b1-2)Man(a1-3)[Fuc(a1-2)Gal(b1-4)GlcNAc(b1-2)Man(a1-6)]Man(b1-4)GlcNAc(b1-4)[Fuc(a1-6)]GlcNAc
Summary of the method: as §1

[18] = molecular target: Fuc(a1-2)Gal(b1-4)GlcNAc(b1-2)[Fuc(a1-2)Gal(b1-4)GlcNAc(b1-4)]Man(a1-3)[Fuc(a1-2)Gal(b1-4)GlcNAc(b1-2)Man(a1-6)]Man(b1-4)GlcNAc(b1-4)GlcNAc
Summary of the method: as §1

[19] = molecular target: Fuc(a1-2)Gal(b1-4)GlcNAc(b1-3)Gal(b1-4)GlcNAc
Summary of the method: as §1

[20] = molecular target: Fuc(a1-2)Gal(b1-4)GlcNAc(b1-3)Gal(b1-4)GlcNAc(b1-3)Gal(b1-4)GlcNAc
Summary of the method: as §1

[21] = molecular target: Fuc(a1-2)Gal(b1-4)GlcNAc(b1-3)GalNAc
Summary of the method: as §1

[22] = molecular target: Fuc(a1-2)Gal(b1-4)GlcNAc6S
Summary of the method: as §1

[23] = molecular target: Fuc(a1-2)Gal(b1-4)[Fuc(a1-3)]GlcNAc
Summary of the method: as §1

[24] = molecular target: Fuc(a1-2)Gal(b1-4)[Fuc(a1-3)]GlcNAc(b1-2)Man(a1-3)[Fuc(a1-2)Gal(b1-4)[Fuc(a1-3)]GlcNAc(b1-2)Man(a1-6)]Man(b1-4)GlcNAc(b1-4)GlcNAc
Summary of the method: as §1

[25] = molecular target: Fuc(a1-2)Gal(b1-4)[Fuc(a1-3)]GlcNAc(b1-2)[Fuc(a1-2)Gal(b1-4)[Fuc(a1-3)]GlcNAc(b1-4)]Man(a1-3)[Fuc(a1-2)Gal(b1-4)[Fuc(a1-3)]GlcNAc(b1-2)Man(a1-6)]Man(b1-4)GlcNAc(b1-4)GlcNAc
Summary of the method: as §1

[26] = molecular target: Fuc(a1-2)Gal(b1-4)[Fuc(a1-3)]GlcNAc(b1-3)Gal(b1-4)[Fuc(a1-3)]GlcNAc
Summary of the method: as §1

[27] = molecular target: Fuc(a1-2)Gal(b1-4)[Fuc(a1-3)]GlcNAc(b1-3)Gal(b1-4)[Fuc(a1-3)]GlcNAc(b1-3)Gal(b1-4)[Fuc(a1-3)]GlcNAc
Summary of the method: as §1

[28] = molecular target: Fuc(a1-2)Gal(b1-4)[Fuc(a1-3)]GlcNAc(b1-3)GalNAc
Summary of the method: as §1

Fuc(a1-2)Gal6S(b1-4)Glc = molecular target: Fuc(a1-2)Gal6S(b1-4)Glc
Summary of the method: as §1

[29] = molecular target: Fuc(a1-2)Gal6S(b1-4)Glc6S
Summary of the method: as §1

[30] = molecular target: Fuc(a1-2)Gal6S(b1-4)GlcNAc
Summary of the method: as §1

B1: LSectin (Mus musculus), Q8BNX1 (protein)
chain: MNTGEYNKLGSAIEEVSRGQLGRWECYKQRLFFLVLALLVATVLWALILSTLLSSASSKLRVLLSHQDLLRTNASEQKMTLSSLKDDIGACRNCCSVTKAQLQTTLAEFKDIQAKLMEQESILKELQERVTQDLAKASRDRENIRSELFQALEAVKRQNSSCEQCPPSWLPFQGSCYYFSETQATWDTAQSYCGGQGAHLVIVRGLNEQGFLSQHTRGRGYWLGLRAVRHLNKIQGYRWVDGASLNFSHWNSGEPNDSRGHEDCIMMLHSGLWNDAPCTNERDGWICEKRSSCY
glycan array binding signal (z-score) (Fuc(a1-2)Gal): -0.138 | glycan array binding signal (z-score) (Fuc(a1-2)Gal(b1-3)GalNAc): -0.177 | glycan array binding signal (z-score) [1]: -0.185 | glycan array binding signal (z-score) [2]: -0.194 | glycan array binding signal (z-score) [3]: -0.179 | glycan array binding signal (z-score) [4]: -0.169 | glycan array binding signal (z-score) [5]: -0.184 | glycan array binding signal (z-score) (Fuc(a1-2)Gal(b1-3)GlcNAc): -0.144 | glycan array binding signal (z-score) [6]: -0.18 | glycan array binding signal (z-score) [7]: -0.184 | glycan array binding signal (z-score) [8]: -0.18 | glycan array binding signal (z-score) [9]: -0.188 | glycan array binding signal (z-score) [10]: -0.187 | glycan array binding signal (z-score) [11]: -0.188 | glycan array binding signal (z-score) [12]: -0.15 | glycan array binding signal (z-score) [13]: -0.176 | glycan array binding signal (z-score) [14]: -0.174 | glycan array binding signal (z-score) [15]: -0.181 | glycan array binding signal (z-score) (Fuc(a1-2)Gal(b1-4)Glc): 0.275 | glycan array binding signal (z-score) (Fuc(a1-2)Gal(b1-4)Glc6S): -0.138 | glycan array binding signal (z-score) (Fuc(a1-2)Gal(b1-4)GlcNAc): 0.28 | glycan array binding signal (z-score) [16]: 2.71 | glycan array binding signal (z-score) [17]: -0.19 | glycan array binding signal (z-score) [18]: 0.645 | glycan array binding signal (z-score) [19]: 0.829 | glycan array binding signal (z-score) [20]: 0.857 | glycan array binding signal (z-score) [21]: 0.092 | glycan array binding signal (z-score) [22]: -0.146 | glycan array binding signal (z-score) [23]: 0.063 | glycan array binding signal (z-score) [24]: 0.42 | glycan array binding signal (z-score) [25]: 0.069 | glycan array binding signal (z-score) [26]: -0.012 | glycan array binding signal (z-score) [27]: 0.067 | glycan array binding signal (z-score) [28]: -0.154 | glycan array binding signal (z-score) (Fuc(a1-2)Gal6S(b1-4)Glc): -0.139 | glycan array binding signal (z-score) [29]: -0.129 | glycan array binding signal (z-score) [30]: -0.139
